Laboratory results taken from the supplement of paper PMC11876631.
± gives the standard deviation of the averaged measurements. Laboratory Escherichia coli strains with one amino-acid change in an essential protein, pooled on minimal glucose agar with carbenicillin or gentamicin at twice the control MIC (plus kanamycin and chloramphenicol for the plasmids), 48 h. Fold change of barcode share against drug-free plates; higher = less susceptible. Active = above 20 in both replicates (the paper's putatively resistant). '<' = one read or none on drug, '>' = one read or none on a drug-free plate. Shares are relative, so most strains fall below 1 when a few take over. Listed are strains with at least 15 reads on both drug-free plates, and hits; most hits rest on fewer reference reads. Replicate rank correlation about 0.5. Edits are read from barcodes.

Target: Escherichia coli (laboratory strain)
Assay: barcode share on antibiotic plates over drug-free plates; higher = less susceptible
Description: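 A pool of E. coli strains, each edited to carry one amino-acid change in an essential protein, was grown for 48 h on minimal glucose agar with or without antibiotic; strain barcodes were sequenced; mean of two replicates.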

[1] = antibiotic: carbenicillin, 2× MIC (3.1 µg/mL)
[2] = antibiotic: gentamicin, 2× MIC (MIC 0.45 µg/mL)

| Protein | fold change of barcode share [1] | fold change of barcode share [2] |
| --- | --- | --- |
| mukB V758A (protein) MIERGKFRSLTLINWNGFFARTFDLDELVTTLSGGNGAGKSTTMAAFVTALIPDLTLLHFRNTTEAGATSGSRDKGLHGKLKAGVCYSMLDTINSRHQRVVVGVRLQQVAGRDRKVDIKPFAIQGLPMSVQPTQLVTETLNERQARVLPLNELKDKLEAMEGVQFKQFNSITDYHSLMFDLGIIARRLRSASDRSKFYRLIEASLYGGISSAITRSLRDYLLPENSGVRKAFQDMEAALRENRMTLEAIRVTQSDRDLFKHLISEATNYVAADYMRHANERRVHLDKALEFRRELHTSRQQLAAEQYKHVDMARELAEHNGAEGDLEADYQAASDHLNLVQTALRQQEKIERYEADLDELQIRLEEQNEVVAEAIERQQENEARAEAAELEVDELKSQLADYQQALDVQQTRAIQYNQAIAALNRAKELCHLPDLTADCAAEWLETFQAKELEATEKMLSLEQKMSMAQTAHSQFEQAYQLVVAINGPLARNEAWDVARELLREGVDQRHLAEQVQPLRMRLSELEQRLREQQEAERLLADFCKRQGKNFDIDELEALHQELEARIASLSDSVSNAREERMALRQEQEQLQSRIQSLMQRAPVWLAAQNSLNQLSEQCGEEFTSSQDVTEYLQQLLEREREAIVERDEVGARKNAVDEEIERLSQPGGSEDQRLNALAERFGGVLLSEIYDDVSLEDAPYFSALYGPSRHAIVVPDLSQVTEHLEGLTDCPEDLYLIEGDPQSFDDSVFSVDELEKAAVVKIADRQWRYSRFPEVPLFGRAARESRIESLHAEREVLSERFATLSFDVQKTQRLHQAFSRFIGSHLAVAFESDPEAEIRQLNSRRVELERALSNHENDNQQQRIQFEQAKEGVTALNRILPRLNLLADDSLADRVDEIRERLDEAQEAARFVQQFGNQLAKLEPIVSVLQSDPEQFEQLKEDYAYSQQMQRDARQQAFALTEVVQRRAHFSYSDSAEMLSGNSDLNEKLRERLEQAEAERTRAREALRGHAAQLSQYNQVLASLKSSYDTKKELLNDLQRELQDIGVRADSGAEERARIRRDELHAQLSNNRSRRNQLEKALTFCEAEMDNLTRKLRKLERDYFEMREQVVTAKAGWCAVMRMVKDNGVERRLHRRELAYLSADDLRSMSDKALGALRLAVADNEHLRDVLRMSEDPKRPERKIQFFVAVYQHLRERIRQDIIRTDDPVEAIEQMEIELSRLTEELTSREQKLAISSRSVANIIRKTIQREQNRIRMLNQGLQNVSFGQVNSVRLNVNVRETHAMLLDVLSEQHEQHQDLFNSNRLTFSEALAKLYQRLNPQIDMGQRTPQTIGEELLDYRNYLEMEVEVNRGSDGWLRAESGALSTGEAIGTGMSILVMVVQSWEDESRRLRGKDISPCRLLFLDEAARLDARSIATLFELCERLQMQLIIAAPENISPEKGTTYKLVRKVFQNTEHVHVVGLRGFAPQLPETLPGTDEAPSQAS | 0.452 ± 0.3 | < 0.0144 |
| mukB V758P (protein) MIERGKFRSLTLINWNGFFARTFDLDELVTTLSGGNGAGKSTTMAAFVTALIPDLTLLHFRNTTEAGATSGSRDKGLHGKLKAGVCYSMLDTINSRHQRVVVGVRLQQVAGRDRKVDIKPFAIQGLPMSVQPTQLVTETLNERQARVLPLNELKDKLEAMEGVQFKQFNSITDYHSLMFDLGIIARRLRSASDRSKFYRLIEASLYGGISSAITRSLRDYLLPENSGVRKAFQDMEAALRENRMTLEAIRVTQSDRDLFKHLISEATNYVAADYMRHANERRVHLDKALEFRRELHTSRQQLAAEQYKHVDMARELAEHNGAEGDLEADYQAASDHLNLVQTALRQQEKIERYEADLDELQIRLEEQNEVVAEAIERQQENEARAEAAELEVDELKSQLADYQQALDVQQTRAIQYNQAIAALNRAKELCHLPDLTADCAAEWLETFQAKELEATEKMLSLEQKMSMAQTAHSQFEQAYQLVVAINGPLARNEAWDVARELLREGVDQRHLAEQVQPLRMRLSELEQRLREQQEAERLLADFCKRQGKNFDIDELEALHQELEARIASLSDSVSNAREERMALRQEQEQLQSRIQSLMQRAPVWLAAQNSLNQLSEQCGEEFTSSQDVTEYLQQLLEREREAIVERDEVGARKNAVDEEIERLSQPGGSEDQRLNALAERFGGVLLSEIYDDVSLEDAPYFSALYGPSRHAIVVPDLSQVTEHLEGLTDCPEDLYLIEGDPQSFDDSVFSVDELEKAPVVKIADRQWRYSRFPEVPLFGRAARESRIESLHAEREVLSERFATLSFDVQKTQRLHQAFSRFIGSHLAVAFESDPEAEIRQLNSRRVELERALSNHENDNQQQRIQFEQAKEGVTALNRILPRLNLLADDSLADRVDEIRERLDEAQEAARFVQQFGNQLAKLEPIVSVLQSDPEQFEQLKEDYAYSQQMQRDARQQAFALTEVVQRRAHFSYSDSAEMLSGNSDLNEKLRERLEQAEAERTRAREALRGHAAQLSQYNQVLASLKSSYDTKKELLNDLQRELQDIGVRADSGAEERARIRRDELHAQLSNNRSRRNQLEKALTFCEAEMDNLTRKLRKLERDYFEMREQVVTAKAGWCAVMRMVKDNGVERRLHRRELAYLSADDLRSMSDKALGALRLAVADNEHLRDVLRMSEDPKRPERKIQFFVAVYQHLRERIRQDIIRTDDPVEAIEQMEIELSRLTEELTSREQKLAISSRSVANIIRKTIQREQNRIRMLNQGLQNVSFGQVNSVRLNVNVRETHAMLLDVLSEQHEQHQDLFNSNRLTFSEALAKLYQRLNPQIDMGQRTPQTIGEELLDYRNYLEMEVEVNRGSDGWLRAESGALSTGEAIGTGMSILVMVVQSWEDESRRLRGKDISPCRLLFLDEAARLDARSIATLFELCERLQMQLIIAAPENISPEKGTTYKLVRKVFQNTEHVHVVGLRGFAPQLPETLPGTDEAPSQAS | 0.326 ± 0.17 | 0.0248 ± 0.0073 |
| mukB V758D (protein) MIERGKFRSLTLINWNGFFARTFDLDELVTTLSGGNGAGKSTTMAAFVTALIPDLTLLHFRNTTEAGATSGSRDKGLHGKLKAGVCYSMLDTINSRHQRVVVGVRLQQVAGRDRKVDIKPFAIQGLPMSVQPTQLVTETLNERQARVLPLNELKDKLEAMEGVQFKQFNSITDYHSLMFDLGIIARRLRSASDRSKFYRLIEASLYGGISSAITRSLRDYLLPENSGVRKAFQDMEAALRENRMTLEAIRVTQSDRDLFKHLISEATNYVAADYMRHANERRVHLDKALEFRRELHTSRQQLAAEQYKHVDMARELAEHNGAEGDLEADYQAASDHLNLVQTALRQQEKIERYEADLDELQIRLEEQNEVVAEAIERQQENEARAEAAELEVDELKSQLADYQQALDVQQTRAIQYNQAIAALNRAKELCHLPDLTADCAAEWLETFQAKELEATEKMLSLEQKMSMAQTAHSQFEQAYQLVVAINGPLARNEAWDVARELLREGVDQRHLAEQVQPLRMRLSELEQRLREQQEAERLLADFCKRQGKNFDIDELEALHQELEARIASLSDSVSNAREERMALRQEQEQLQSRIQSLMQRAPVWLAAQNSLNQLSEQCGEEFTSSQDVTEYLQQLLEREREAIVERDEVGARKNAVDEEIERLSQPGGSEDQRLNALAERFGGVLLSEIYDDVSLEDAPYFSALYGPSRHAIVVPDLSQVTEHLEGLTDCPEDLYLIEGDPQSFDDSVFSVDELEKADVVKIADRQWRYSRFPEVPLFGRAARESRIESLHAEREVLSERFATLSFDVQKTQRLHQAFSRFIGSHLAVAFESDPEAEIRQLNSRRVELERALSNHENDNQQQRIQFEQAKEGVTALNRILPRLNLLADDSLADRVDEIRERLDEAQEAARFVQQFGNQLAKLEPIVSVLQSDPEQFEQLKEDYAYSQQMQRDARQQAFALTEVVQRRAHFSYSDSAEMLSGNSDLNEKLRERLEQAEAERTRAREALRGHAAQLSQYNQVLASLKSSYDTKKELLNDLQRELQDIGVRADSGAEERARIRRDELHAQLSNNRSRRNQLEKALTFCEAEMDNLTRKLRKLERDYFEMREQVVTAKAGWCAVMRMVKDNGVERRLHRRELAYLSADDLRSMSDKALGALRLAVADNEHLRDVLRMSEDPKRPERKIQFFVAVYQHLRERIRQDIIRTDDPVEAIEQMEIELSRLTEELTSREQKLAISSRSVANIIRKTIQREQNRIRMLNQGLQNVSFGQVNSVRLNVNVRETHAMLLDVLSEQHEQHQDLFNSNRLTFSEALAKLYQRLNPQIDMGQRTPQTIGEELLDYRNYLEMEVEVNRGSDGWLRAESGALSTGEAIGTGMSILVMVVQSWEDESRRLRGKDISPCRLLFLDEAARLDARSIATLFELCERLQMQLIIAAPENISPEKGTTYKLVRKVFQNTEHVHVVGLRGFAPQLPETLPGTDEAPSQAS | 0.229 ± 0.01 | 0.416 ± 0.58 |
| mukB V758W (protein) MIERGKFRSLTLINWNGFFARTFDLDELVTTLSGGNGAGKSTTMAAFVTALIPDLTLLHFRNTTEAGATSGSRDKGLHGKLKAGVCYSMLDTINSRHQRVVVGVRLQQVAGRDRKVDIKPFAIQGLPMSVQPTQLVTETLNERQARVLPLNELKDKLEAMEGVQFKQFNSITDYHSLMFDLGIIARRLRSASDRSKFYRLIEASLYGGISSAITRSLRDYLLPENSGVRKAFQDMEAALRENRMTLEAIRVTQSDRDLFKHLISEATNYVAADYMRHANERRVHLDKALEFRRELHTSRQQLAAEQYKHVDMARELAEHNGAEGDLEADYQAASDHLNLVQTALRQQEKIERYEADLDELQIRLEEQNEVVAEAIERQQENEARAEAAELEVDELKSQLADYQQALDVQQTRAIQYNQAIAALNRAKELCHLPDLTADCAAEWLETFQAKELEATEKMLSLEQKMSMAQTAHSQFEQAYQLVVAINGPLARNEAWDVARELLREGVDQRHLAEQVQPLRMRLSELEQRLREQQEAERLLADFCKRQGKNFDIDELEALHQELEARIASLSDSVSNAREERMALRQEQEQLQSRIQSLMQRAPVWLAAQNSLNQLSEQCGEEFTSSQDVTEYLQQLLEREREAIVERDEVGARKNAVDEEIERLSQPGGSEDQRLNALAERFGGVLLSEIYDDVSLEDAPYFSALYGPSRHAIVVPDLSQVTEHLEGLTDCPEDLYLIEGDPQSFDDSVFSVDELEKAWVVKIADRQWRYSRFPEVPLFGRAARESRIESLHAEREVLSERFATLSFDVQKTQRLHQAFSRFIGSHLAVAFESDPEAEIRQLNSRRVELERALSNHENDNQQQRIQFEQAKEGVTALNRILPRLNLLADDSLADRVDEIRERLDEAQEAARFVQQFGNQLAKLEPIVSVLQSDPEQFEQLKEDYAYSQQMQRDARQQAFALTEVVQRRAHFSYSDSAEMLSGNSDLNEKLRERLEQAEAERTRAREALRGHAAQLSQYNQVLASLKSSYDTKKELLNDLQRELQDIGVRADSGAEERARIRRDELHAQLSNNRSRRNQLEKALTFCEAEMDNLTRKLRKLERDYFEMREQVVTAKAGWCAVMRMVKDNGVERRLHRRELAYLSADDLRSMSDKALGALRLAVADNEHLRDVLRMSEDPKRPERKIQFFVAVYQHLRERIRQDIIRTDDPVEAIEQMEIELSRLTEELTSREQKLAISSRSVANIIRKTIQREQNRIRMLNQGLQNVSFGQVNSVRLNVNVRETHAMLLDVLSEQHEQHQDLFNSNRLTFSEALAKLYQRLNPQIDMGQRTPQTIGEELLDYRNYLEMEVEVNRGSDGWLRAESGALSTGEAIGTGMSILVMVVQSWEDESRRLRGKDISPCRLLFLDEAARLDARSIATLFELCERLQMQLIIAAPENISPEKGTTYKLVRKVFQNTEHVHVVGLRGFAPQLPETLPGTDEAPSQAS | 0.331 ± 0.064 | < 0.0146 |
| asd M140Q (protein) MKNVGFIGWRGMVGSVLMQRMVEERDFDAIRPVFFSTSQLGQAAPSFGGTTGTLQDAFDLEALKALDIIVTCQGGDYTNEIYPKLRESGWQGYWIDAASSLRMKDDAIIILDPVNQDVITDGLNNGIRTFVGGNCTVSLQLMSLGGLFANDLVDWVSVATYQAASGGGARHMRELLTQMGHLYGHVADELATPSSAILDIERKVTTLTRSGELPVDNFGVPLAGSLIPWIDKQLDNGQSREEWKGQAETNKILNTSSVIPVDGLCVRVGALRCHSQAFTIKLKKDVSIPTVEELLAAHNPWAKVVPNDREITMRELTPAAVTGTLTTPVGRLRKLNMGPEFLSAFTVGDQLLWGAAEPLRRMLRQLA | 0.306 ± 0.03 | 0.00673 ± 0.0035 |
